Measured values reported in publication PMC4336329 (PLoS ONE, 2015).
Out of some 310,000 compounds screened, about 14,000 (4.5%) showed an effect of 50% or more. Effects have a minus sign here. The list shows a part of the results.

What follows are compounds tested against human ether-à-go-go-related gene (hERG) potassium channel (human, UniProt Q12809) (assay: primary screen, population patch clamp on CHO cells stably expressing hERG).
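Further: peak tail current of the secondary pulse compared with the same well before compound.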

Chain of human ether-à-go-go-related gene (hERG) potassium channel (Q12809 whole entry, looked up): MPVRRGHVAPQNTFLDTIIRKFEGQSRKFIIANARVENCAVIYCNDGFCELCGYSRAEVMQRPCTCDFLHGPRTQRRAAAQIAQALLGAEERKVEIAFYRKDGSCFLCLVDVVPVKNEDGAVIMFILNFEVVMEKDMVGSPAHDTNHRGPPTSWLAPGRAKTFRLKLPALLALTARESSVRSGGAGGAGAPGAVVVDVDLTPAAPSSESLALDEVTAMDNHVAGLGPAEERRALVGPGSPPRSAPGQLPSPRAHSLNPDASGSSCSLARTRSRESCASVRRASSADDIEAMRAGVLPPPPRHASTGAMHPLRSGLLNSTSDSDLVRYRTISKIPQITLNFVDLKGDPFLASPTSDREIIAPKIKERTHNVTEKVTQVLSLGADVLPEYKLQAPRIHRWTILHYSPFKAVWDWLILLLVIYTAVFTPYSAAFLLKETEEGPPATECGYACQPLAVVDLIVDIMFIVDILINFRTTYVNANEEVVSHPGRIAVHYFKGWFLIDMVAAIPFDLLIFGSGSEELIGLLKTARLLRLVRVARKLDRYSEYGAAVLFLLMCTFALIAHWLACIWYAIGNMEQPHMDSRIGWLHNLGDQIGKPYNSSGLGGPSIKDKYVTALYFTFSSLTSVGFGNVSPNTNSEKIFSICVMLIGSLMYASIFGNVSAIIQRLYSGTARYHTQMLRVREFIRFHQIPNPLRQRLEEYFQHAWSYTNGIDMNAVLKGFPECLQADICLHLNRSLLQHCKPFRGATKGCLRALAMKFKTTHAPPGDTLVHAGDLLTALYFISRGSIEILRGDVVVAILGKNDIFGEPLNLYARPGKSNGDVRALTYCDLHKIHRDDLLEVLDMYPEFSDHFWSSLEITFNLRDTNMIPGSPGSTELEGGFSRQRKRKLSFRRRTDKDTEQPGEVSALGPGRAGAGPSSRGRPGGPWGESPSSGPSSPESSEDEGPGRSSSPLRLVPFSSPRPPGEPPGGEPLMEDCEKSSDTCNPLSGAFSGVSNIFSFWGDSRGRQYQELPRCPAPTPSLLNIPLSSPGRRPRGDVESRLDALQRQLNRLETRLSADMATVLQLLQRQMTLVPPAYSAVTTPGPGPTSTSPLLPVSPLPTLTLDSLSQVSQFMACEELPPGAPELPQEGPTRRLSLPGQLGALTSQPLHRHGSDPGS

| SMILES | hERG current change (%, negative = inhibition) at 10uM [%] |
| --- | --- |
| CC(=O)c1cccc(NC(=O)c2c(C)nn(-c3ccccc3)c2Cl)c1 | -24.4 |
| Cc1c(Nc2nc(-c3ccc(Cl)cc3)cs2)c(=O)n(-c2ccccc2)n1C | -17.3 |
| COCCn1c(=NC(=O)c2ccco2)sc2cc(C(=O)OC)ccc21 | 2.42 |
| COCCNC(=S)N1CCC(Cc2ccccc2)CC1 | -24.9 |
| COc1ccc(-c2nc(CS(=O)CC(=O)NC3CCCCC3)c(C)o2)cc1OC (stereo not drawn) | -9.2 |
| Cl.Nn1cnnc1N/N=C/c1ccc(Cl)c([N+](=O)[O-])c1 | -26.6 |
| CCC(C(=O)NCc1cccnc1)c1ccccc1 (stereo not drawn) | -2.33 |
| COCCN(CC(=O)NCc1ccc(F)cc1)C(=O)CCC(=O)Nc1nccs1 | 0.181 |
| Cc1ccc(C)c(OCC(=O)N2CCCN(C)CC2)c1 | 22.3 |
| S=c1[nH]nc(-c2cc(-c3ccccc3)n[nH]2)n1/N=C/C(Br)=C/c1ccccc1 | 8.45 |
| COc1ccc(C/C(N)=N/OC(=O)Cc2ccccc2)cc1OC | 7.14 |
| CCOC(=O)c1cc(NC(=O)C2CCCO2)cc(C(=O)OCC)c1 (stereo not drawn) | -6.44 |
| Cc1cc(=O)oc2c(N)c(O)ccc12 | 3.25 |
| Cc1c(Nc2nc3ccccc3nc2NS(=O)(=O)c2cccs2)c(=O)n(-c2ccccc2)n1C | 1.13 |
| Cc1ccc(S(=O)(=O)NCCCCCC(=O)Nc2ccccc2)cc1 | 4.49 |
| CC1(C)CC(=O)c2cc3c(nc2C1)CC(C)(C)CC3=O | 6.51 |
| C=CCn1c(O)c(C=NCCN2CCNCC2)c(=O)[nH]c1=O | 13.8 |
| COc1ccc(N(CC(O)CN2CCOCC2)S(=O)(=O)c2ccccc2)cc1 (stereo not drawn) | -12.1 |
| COc1ccc(NS(=O)(=O)c2cc(NC(=O)C3CC3)ccc2N2CCCCC2)cc1 | 9.99 |
| N=C1C=CC=C2C1=NC1(CCCCC1)N2O | 11.2 |
| O=C(Nc1nccs1)c1cc(-c2ccccn2)nc2c(Cl)cccc12 | 14.5 |
| Cc1ccc2nsnc2c1-n1c(C)nc2ccccc2c1=O | 15.4 |
| COC(=O)C1=C(SC)N(c2ccc(OC)cc2)C(c2ccccc2)CC1=O (stereo not drawn) | -20.9 |

| SMILES | hERG current change (%, negative = inhibition) at 10uM [%] |
| --- | --- |
| CCOC(=O)CCCNC(=O)CCNC(=O)c1ccc(OCC(C)C)cc1 | 3.61 |
| OCC[C@@H]1C[C@@H](O)[C@H](O)[C@@]2(CCCO2)O1 | 6.76 |
| COC(=O)c1cccc(NC(=O)c2cc3ccccc3o2)c1 | -18 |
| Clc1ccc(OCCSCc2nc3ccccc3[nH]2)cc1 | -33.9 |
| COc1cccc(N2C(=O)C3CCCN3C2c2ccc(N(C)C)cc2)c1 (stereo not drawn) | 2.1 |
| O=C(CNC(=O)C(c1ccccc1)c1ccccc1)N/N=C/c1ccc(O)cc1O | -4.68 |
| Cc1cccc(OCC(=O)Nc2ccccc2N2CCN(C(=O)C(C)C)CC2)c1C | -2.63 |
| N#CCCN(CCC#N)S(=O)(=O)c1ccc(C(=O)Nc2nnc(C3=COCCO3)o2)cc1 | 16.9 |
| Cc1cc(-c2ccc(C)c(S(=O)(=O)N3CCN(C(=O)c4ccco4)CC3)c2)on1 | -51.8 |
| COc1ccc(-c2nn[nH]n2)cc1OC | 12.4 |
| Cc1cccc(N2CC(C(=O)NCC3COc4ccccc4O3)CC2=O)c1C (stereo not drawn) | -11.3 |
| COc1ccc(C(=O)CSc2ccc3nnc(-c4cccnc4)n3n2)cc1 | -70.3 |
| CC(=O)/C(C(=N)N1CCN(C(c2ccccc2)c2ccccc2)CC1)=C(\C)O | 8.3 |
| C=CCc1cc(Cl)ccc1OCCn1ccnc1.O=C(O)C(=O)O | -10.1 |
| COc1ccc(/C(O)=C2/C(=O)C(=O)N(CCCN3CCOCC3)C2c2ccc(C)cc2)cc1 (stereo not drawn) | 18.8 |
| CC1=C(C(=O)Nc2ccccn2)C(c2ccc(F)cc2)n2ncnc2N1 (stereo not drawn) | -13.1 |
| COc1ccc(C(C)=O)cc1CN1C(=O)NC2(CCCCC2)C1=O | -3.62 |
| CN(C)C(CNC(=S)Nc1cccc(Cl)c1)c1ccccc1 (stereo not drawn) | -35.3 |
| O=C(O)c1cc(-c2ccc3c(c2)OCCO3)n[nH]1 | 9.83 |
| c1ccc2[nH]c(SCc3ccc(-c4nnco4)cc3)nc2c1 | -3.93 |
| NNC(=O)C(Cc1ccc(O)cc1)N1Cc2ccccc2C1=O (stereo not drawn) | 14.7 |
| CCS(=O)(=O)C1=NN2C(=N)/C(=C\c3ccc(OS(=O)(=O)c4ccccc4)cc3)C(=O)N=C2S1 | 15.2 |
| CC(C)c1nnc(NC(=O)c2cccc(-n3cnnn3)c2)s1 | 4.79 |

| SMILES | hERG current change (%, negative = inhibition) at 10uM [%] |
| --- | --- |
| CSc1nc2n(n1)C(C)C1=C(CCCC1=O)N2 (stereo not drawn) | 19 |
| Cc1nn(-c2ccc(Cl)c(Cl)c2)c(C)c1C(=O)O | 31 |
| COc1ccccc1CCC(=O)OCc1csc(CC(=O)Nc2ccccc2C)n1 | -9.67 |
| CN1CCN(/N=C/c2c(O)n(CCC3=CCCCC3)c(=S)[nH]c2=O)CC1 | -64.9 |
| Nc1cc([N+](=O)[O-])ccc1O | 6.95 |
| O=C(CN(CC1CCCO1)C(=O)CNS(=O)(=O)c1ccc(Cl)cc1)NC1CCCCC1 (stereo not drawn) | -5.15 |
| CN(C)S(=O)(=O)c1cccc(NC(=O)c2ccc3nccnc3c2)c1 | -11.5 |
| O=C(O)c1ccccc1NS(=O)(=O)c1cccc2cccnc12 | -11.4 |
| Cc1cccc(N2C(=O)c3cccc(Oc4ccc(Cl)cc4)c3C2=O)c1 | 4.76 |
| COc1ccc(CSc2n[nH]c(C)n2)cc1[N+](=O)[O-] | 26.2 |
| CC1=Cc2ccccc2C(C#N)N1C(=O)c1ccccc1 (stereo not drawn) | -11.3 |
| Cc1cc(C)nc(NC(=O)/C=C/c2ccccc2Cl)n1 | -1.84 |
| O=C(N=Nc1c(O)[nH]c(=O)[nH]c1=O)C1COc2cc3ccccc3cc2O1 (stereo not drawn) | 13.2 |
| Cc1ccc(NC(=O)CSc2nnc([C@H](C)NC(=O)OC(C)(C)C)o2)c(C)c1 | -6.67 |
| O=C(c1cnn2ccccc12)N(Cc1ccco1)C1CCCC1 | 4.7 |
| COc1ccc(Cl)cc1C(=O)C1CCCN(Cc2cnc(C)s2)C1 (stereo not drawn) | -38.1 |
| Nc1c(Cl)cc(-c2csc(NCCc3nc4cc(Cl)c(Cl)cc4n3CCCO)n2)cc1Cl | 19.4 |
| COc1ccccc1CNS(=O)(=O)c1ccc(-n2cnnn2)c(C)c1 | 7.04 |
| Cc1csc(SCC(=O)N(C)CC(=O)Nc2ccccc2Cl)n1 | -27.8 |
| O=C(NC1CC1)C1CCN(c2ccc(S(=O)(=O)N3CCOCC3)cc2)CC1 | 0.346 |
| Cc1cc(C(=O)NC2=NCCS2)c2ccccc2n1 | 10.9 |
| Cn1cc(C=C2C(=O)CC(C)(C)CC2=O)c2ccccc21 | 14.3 |
| Cc1ccccc1Cc1c(C)nc2nc(SCC(=O)NCCCN3CCCC3)nn2c1C | 10.8 |

| SMILES | hERG current change (%, negative = inhibition) at 10uM [%] |
| --- | --- |
| CC1NC(=S)N(Cc2ccccc2)C1=O (stereo not drawn) | 12.9 |
| COc1cccc(CNC(=O)C(NS(=O)(=O)c2ccc3c(c2)CCN3C(C)=O)C(C)C)c1 (stereo not drawn) | 15.8 |
| CN(C)S(=O)(=O)c1ccc(N2CCOCC2)nc1 | 12 |
| O=C(N/N=C/c1ccccc1OC(F)F)C1=COCCO1 | -7.69 |
| CN(C)CCN1C(=O)C(O)=C(C(=O)c2cc3ccccc3o2)C1c1ccc(N(C)C)cc1 (stereo not drawn) | 0.454 |
| CCCC/C(C)=N/NC(=O)CN(c1ccc(Br)cc1)S(=O)(=O)c1ccccc1 | -12.4 |
| CC12CCCC[C@@H]1CCC1C2CCC2(C)C1CC[C@@]2(O)CNCCO (stereo partly drawn) | 15 |
| CC1CCCN(C(=O)CSc2cnc3ccccc3n2)C1 (stereo not drawn) | -12.5 |
| O=C(c1cnn(-c2ccccc2)c1)c1ccc2ccccc2c1O | 11.9 |
| CCOC(=O)N1CCC(n2c(SCC(=O)N3CCC(C)CC3)nc3ccccc3c2=O)CC1 | -47.9 |
| CCC(=O)NC(c1ccc(Cl)cc1Cl)c1ccc2cccnc2c1O (stereo not drawn) | -0.357 |
| CC1CCCC(C)N1C(=O)COC(=O)c1ccc2c(c1)OCO2 (stereo not drawn) | 4.65 |
| COc1ccc(OC)c(NC(=O)COC(=O)Cn2nnc(-c3ccccc3)n2)c1 | 2.66 |
| OCCN(CC(O)COc1ccccc1)CC(O)Cn1ccc2ccccc21 (stereo not drawn) | -32.5 |
| CC(NC(=O)c1ccccc1F)c1nnc(SCC(=O)NC2CCCCC2)n1C (stereo not drawn) | 21.5 |
| CC(=O)Oc1ccccc1-n1c(C)nc(=O)c(-c2ccccc2)c1C | -4.2 |
| Cc1cc(C)n(-c2nc3c(c(=O)[nH]c(=O)n3C)n2CC(O)c2ccccc2)n1 (stereo not drawn) | -8.07 |
| CS(=O)(=O)N1CCC(C(=O)N2CCN(c3ccc(F)cc3)CC2)CC1 | 2.03 |
| COc1ccc(/C=N/NC(=O)c2ccc(=O)n(C)c2)cc1OC | 17.6 |
| CCC(C)(C)NC(=O)c1cc([N+](=O)[O-])ccc1N1CCOCC1 | -37.3 |
| CCc1ccc(N(CC)C(=O)c2ccc3c(Cl)c4c(nc3c2)CCC4)cc1 | 0.386 |
